Source: the supplement of paper PMC3334620
In all, about 33,000 sequences were measured (“E-score (-0.5 to 0.5)”: median about -0.054, highest 2% from about 0.39 on). The list shows a part of the results.

These sequences were tested against Ylr278c (UniProt Q05854) (assay: PBM E-score (8-mer binding enrichment) (E-score (-0.5 to 0.5)); higher = stronger / more preferred TF binding; most listed sequences are background and not binding sites). Conditions: protein concentration: 200 nM; construct: GST-DNA-binding domain.
Outline: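 Detection of bound protein used fluorescent anti-GST, with scans normalised by masliner. The proteins were GST-tagged yeast transcription factors applied at about 100-200 nM to universal all-10-mer Agilent arrays made double-stranded by primer extension. Each ungapped eight-base word, pooled with its reverse complement, was scored with an E-score from the Universal PBM Analysis Suite.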

Row | Sequence | PBM E-score
1 | AAACGACT | -0.0402
2 | CTATCATA | -0.0715
3 | GCCATTTA | -0.0531
4 | CAGCATCA | -0.245
5 | TATTTTGA | -0.142
6 | CAAAGGCA | -0.191
7 | TCGTCCAA | -0.0264
8 | ATGGGAAT | -0.0629
9 | GCATGCCA | -0.199
10 | ACTATACT | -0.0985
11 | TTCCCCAA | -0.105
12 | CAAGTTAA | -0.229
13 | CGGTACCC | 0.0783
14 | AACTGGCA | -0.0344
15 | CCGCATGC | 0.199
16 | CCCAGCAG | 0.0256
17 | AACTCAAT | 0.00165
18 | AACAATGG | -0.16
19 | GCGAATAC | 0.0752
20 | TAGACAAA | -0.125
21 | AATGTTCG | 0.13
22 | CCAGGCCA | -0.197
23 | ATCTCTAG | -0.194
24 | ATACTTTA | -0.0666
25 | CCGTCCCC | 0.156

Row | Sequence | PBM E-score
26 | CTGCATAC | -0.0346
27 | CGCGCTTA | 0.0847
28 | CATTTACA | -0.156
29 | CTAGTTTA | -0.22
30 | AGGACGAG | -0.227
31 | ACTCATAT | -0.0959
32 | AAAGTGGA | -0.204
33 | GAGAGGCC | -0.0389
34 | AATTGTGT | -0.119
35 | GGTTGATA | -0.0138
36 | ACTTGACG | -0.135
37 | ACCCTCTG | -0.175
38 | CTTTGCGA | -0.0206
39 | AAGGCCTA | -0.133
40 | CGTGTTAG | 0.0187
41 | GCATGTTA | 0.0801
42 | GAAAGGTC | 0.0206
43 | ACGACGTA | -0.221
44 | ATACGGTG | 0.0149
45 | AACTACCT | 0.114
46 | CCGGTAAC | 0.3
47 | GCGCAACA | 0.0413
48 | ACGATGCC | -0.208
49 | ATCAACAA | -0.0598
50 | CTAAAGCC | -0.125

Row | Sequence | PBM E-score
51 | ATAAGTTG | -0.0479
52 | AGGAAGTG | -0.0601
53 | GTACGTGA | -0.198
54 | ATGAAATG | 0.0162
55 | GGCTGAAC | 0.0333
56 | GCGTCTTA | -0.209
57 | CCGACACC | 0.348
58 | ACAAGGGT | -0.144
59 | GGAACTCA | 0.189
60 | TCATGGAA | 0.067
61 | AGTAGCAC | -0.159
62 | AAGGATAG | 0.0333
63 | CTGACCGC | 0.122
64 | TCATAGGA | -0.0414
65 | ACATGGGT | -0.0947
66 | AGCTACGC | -0.137
67 | TAAAGAAA | 0.0382
68 | ACGTTAGG | -0.153
69 | ACGAACGC | 0.0182
70 | CGCGGATA | 0.32
71 | GGTAGTCA | -0.12
72 | ATCACCAG | -0.0554
73 | ACTGAAAA | -0.0502
74 | CTTCTCTC | -0.0355
75 | CTTAGCTA | -0.178

Row | Sequence | PBM E-score
76 | ACGCCTCG | 0.0517
77 | GCGTTGTA | -0.108
78 | CCATGAAA | -0.0325
79 | CTAGCCAC | -0.325
80 | ACGGATCT | 0.191
81 | GTATTCGA | -0.134
82 | GTGGGCGA | -0.196
83 | CCGGAGAC | 0.444
84 | CAGAGGAC | -0.187
85 | ACTAGTAT | -0.0593
86 | ATAGAACC | 0.013
87 | ACAGACCA | -0.0751
88 | CTGCACAG | -0.104
89 | GGGAAGAC | -0.0678
90 | TAGCTAAA | -0.192
91 | AGGGATGG | 0.00831
92 | AGTTTTGC | 0.0673
93 | CGGACTAA | 0.423
94 | CACACCAG | -0.26
95 | ACGACGCA | -0.0635
96 | AATCCCCA | -0.0702
97 | GGTACTAC | 0.0675
98 | CTTCGGGC | 0.0457
99 | AGTAGCCC | 0.0625
100 | CGCAGTTC | 0.0606

Row | Sequence | PBM E-score
101 | CCACTAAG | -0.0399
102 | AGTGGCAT | -0.215
103 | GCGAAGCA | 0.128
104 | AGATTTTA | -0.148
105 | TATTGGGA | -0.141
106 | GGAGGACC | 0.13
107 | CACCGATG | 0.112
108 | CCCGATTA | 0.216
109 | AGGACTGC | -0.338
110 | AGACTCAG | -0.16
111 | GAATTCAC | 0.00474
112 | GTATCCAA | -0.13
113 | CACCGGAA | 0.427
114 | CCATGTGA | -0.202
115 | AAATTAGA | 0.0288
116 | TCCAATCA | 8e-05
117 | CTCGTTGA | -0.273
118 | ATTGACAG | -0.0371
119 | GAAAGTCC | 0.366
120 | ACCTTTGA | -0.165
121 | ATCCTCAA | -0.0664
122 | GCAATCGA | -0.0424
123 | ACGTCATG | -0.0961
124 | ATTACGCG | 0.16
125 | ACCAGCGA | 0.0382

Row | Sequence | PBM E-score
126 | CGGGTAAC | 0.177
127 | CAGCCGCA | -0.211
128 | AGATAAAA | 0.0376
129 | AATTTCGT | -0.0607
130 | AGTAACGA | 0.0316
131 | GACACATA | -0.119
132 | AGGAACTC | 0.0174
133 | CGCTTGAG | -0.0647
134 | AAGCGACA | -0.0242
135 | AAGGTAGT | -0.0336
136 | AACGCAGC | -0.0734
137 | TCGCTAAA | -0.123
138 | AGGTCCAT | -0.0626
139 | CACTCACA | -0.0322
140 | ACTGTTCA | -0.122
141 | CGATATCA | 0.0303
142 | CACCGTCC | 0.153
143 | AATCGCCG | 0.367
144 | GCCGGTGA | 0.298
145 | AGGCCGCA | -0.0298
146 | ATTATATA | -0.0714
147 | CCGACACA | 0.178
148 | GGACTCCA | 0.149
149 | AGAAAACG | 0.00776
150 | CCCCATGA | -0.194

Row | Sequence | PBM E-score
151 | ACCATCCA | -0.212
152 | CCATCAAG | -0.239
153 | CCTGGGCA | -0.305
154 | ATTAAGCG | 0.102
155 | CGTCCGGA | 0.43
156 | ACGTCTAT | -0.17
157 | CACGTATA | -0.145
158 | AGCGTTCA | -0.209
159 | GGCAAACC | -0.0222
160 | TAACCTCA | -0.156
161 | CATCGGAC | 0.424
162 | AAATCTGA | -0.0879
163 | AGCTATGA | -0.19
164 | GCGGTGAA | 0.193
165 | CATACCTC | -0.13
166 | ACTCATCC | -0.0863
167 | AAACAGCC | -0.131
168 | GCTACGAA | -0.212
169 | ATGATTGG | -0.00969
170 | AGCCTGAC | -0.13
171 | GCATGTAA | -0.134
172 | ATCAGGCA | -0.0962
